From PubChem BioAssay AID1347417 (National Center for Advancing Translational Sciences (NCATS), 2020)
Hit rate of the full screen: of about 120,000 compounds, about 5,300 (4.4%) were called active. Inconclusive results, whose numbers are uncertain, are shown with a selection of clear calls. The call rests on the fitted dose curve; in most records, active means well fitted inhibition curve with a large enough effect; inconclusive means small, poorly fitted or top-dose-only effect; inactive means no such curve, though single readings can be large or run the other way. Potencies beside an inconclusive call are fits to weak or partial responses and may not hold up.

Assay: qHTS Primary assay for Inhibitors of Plasmodium falciparum Dd2 growth in vitro; further: nearly all actives have a fitted effect of over 65% in size
Details: P. falciparum Dd2 growth, SYBR Green, 72 h; series mostly up to 28.9 µM
In short: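 Readout: SYBR Green fluorescence, 485 nm excitation, 535 nm emission, after ~16 h lysis at 37C. Before that, Dd2-infected red cells (2.5% hematocrit) grew 72 h with compound, 29 uM top final concentration.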
Potency means the concentration at half of the fitted maximal effect; tags describe the fitted curve by direction and shape.

Row | SMILES | Potency | outcome
1 | COc1ccc(C(=O)N2CCC(C3CCN(S(C)(=O)=O)CC3)C2)c(OC)n1 (configuration not stated) | inconclusive: 1 µM [inhibitor, full curve, poor fit] | 
2 | CN(Cc1ccc(-c2ccccc2)cc1)C(=O)c1ccc(F)cc1 | inconclusive: 31.6 µM [inhibitor, single point] | 
3 | COc1ccc(CN(C(=O)c2ccco2)c2ccc(CC(=O)NC(C)c3ccccc3)cc2)cc1 (configuration not stated) | inconclusive: 0.447 µM [inhibitor, full curve, poor fit] | 
4 | Cc1ccc(S(=O)(=O)c2nc(S(C)(=O)=O)sc2N(C)Cc2ccccc2)cc1 | inconclusive: 15.8 µM [inhibitor, single point] | 
5 | O=C(Cn1cccn1)N1CC[C@@H]2[C@@H](CCC(=O)N2CCc2cnc[nH]2)C1 | inactive | 
6 | CCN1C(=O)C2CC3(CCN(C(=O)c4cccs4)CC3)CN2C1=O (configuration not stated) | inactive | 
7 | CCOC(=O)c1cccc(NC(=O)c2cc3c(-c4cccc(OC)c4)nn(C)c3s2)c1 | inactive | 
8 | CC(C)(C)c1ccc(OCC(=O)Nc2ccc(S(=O)(=O)Nc3ncccn3)cc2)cc1 | inconclusive: 17.8 µM [inhibitor, partial curve, poor fit] | 
9 | Cc1ccc(C)c(C(=O)c2c(N)c(-c3nc(-c4ccc5c(c4)OCO5)cs3)c3ccccn23)c1 | active: 8.91 µM | 
10 | O=C(NCC1CNCCOC1)c1ccc2nc(-c3ccc(F)cc3)cn2c1 (configuration not stated) | inconclusive: 17.8 µM [inhibitor, single point] | 
11 | Cc1ccc(N2CCC(NC(=O)c3cccc(Br)c3)C2=O)cc1 (configuration not stated) | inactive | 
12 | O=[S+]([O-])(Nc1cccnc1)c1ccc2c(c1)OCCN(Cc1cncc(F)c1)C2 | inconclusive: 11.2 µM [inhibitor, partial curve, poor fit] | 
13 | Cc1ccc(OCC(=O)Nc2ccc(Cl)c(-c3nc4ncccc4o3)c2)c(C)c1 | inconclusive: 11.2 µM [inhibitor, single point] | 
14 | COc1ccc(N(Cc2cccs2)C(=O)c2ccc(OCC(C)C)cc2)cc1 | inconclusive: 11.2 µM [inhibitor, single point] | 
15 | Cc1ncoc1C(=O)N1CCC(c2noc(-c3ccncc3)n2)C1 (configuration not stated) |  | inactive [at 5.79 µM]
16 | O=C(Cc1c[nH]c2ccccc12)N1CCC(Cc2nc(C3CC3)n[nH]2)C1 (configuration not stated) | inactive | 
17 | CCOc1ccc(-n2c(=O)c3c(C)c(C)sc3n(CC(=O)N(CC)Cc3ccccc3)c2=O)cc1 | inconclusive: 0.0631 µM [inhibitor, full curve, poor fit] | 
18 | CCc1ccc(S(=O)(=O)c2cn(Cc3ccccc3)c3cc(F)c(F)cc3c2=O)cc1 | inconclusive: 17.8 µM [inhibitor, single point] | 
19 | COCC1CN(C)CC12CCN(Cc1ccc(C#N)cc1)CC2 (configuration not stated) | inconclusive: 5.62 µM [inhibitor, partial curve] | 
20 | O=c1[nH]c(N2CCOCC2)nc2c1CCN(Cc1cccc(Cl)c1F)CC2 | inconclusive: 1.58 µM [inhibitor, partial curve, poor fit] | 
21 | COCC(=O)NC[C@@H]1C=C(C)[C@H](CC(=O)NCc2ccc(F)cc2)C[C@H]1C(C)C | inconclusive: 31.6 µM [inhibitor, single point] | 

Row | SMILES | Potency | outcome
22 | CN(C)CC1(O)CCC2(CCN(C(=O)Cn3c(=O)oc4ccccc43)CC2)CC1 | inconclusive: 3.98 µM [inhibitor, single point] | 
23 | COc1cc(OC)cc(-c2cc3nc(C)c(CCC(=O)NCc4ccc(Cl)cc4)c(C)n3n2)c1 | inconclusive: 10 µM [inhibitor, single point] | 
24 | CN(C)C[C@@H]1CN(c2ncccn2)C[C@H]1NC(=O)COc1ccc(Cl)cc1 | inconclusive: 5.01 µM [inhibitor, partial curve, poor fit] | 
25 | CC(C)CCN(C)Cc1ccccc1C(F)(F)F | inactive | 
26 | CCN1c2cc(C(=O)Nc3cccc(Cl)c3)ccc2C(=O)N2CCCCC21 (configuration not stated) | inconclusive: 0.0708 µM [inhibitor, full curve, poor fit] | 
27 | O=C(NC1CCCC1)c1cc(Nc2cccc(C(F)(F)F)c2)nc2ccccc12 | inconclusive: 12.6 µM [inhibitor, single point] | 
28 | CCC(=O)N1CCc2cc(Br)cc(S(=O)(=O)CCC(=O)N3CCN(c4ccccc4F)CC3)c21 | inconclusive: 10 µM [inhibitor, single point] | 
29 | COCCNC(=O)C[C@@H]1C[C@H]2O[C@H](CNC(=O)Nc3cccnc3)[C@@H](O)[C@H]2O1 | inactive | 
30 | c1cc(-c2cc3c(ccn3Cc3ccncc3)c(N3CCOCC3)n2)c2cn[nH]c2c1 | inconclusive: 7.94 µM [inhibitor, partial curve, poor fit] | 
31 | Nc1nc(C2CC(O)C2)cc(N2CCC(Cc3ccc(F)cc3)CC2)n1 (configuration not stated) | inconclusive: 10 µM [inhibitor, partial curve, poor fit] | 
32 | Cc1ccc(OCC(=O)Nc2ccc3nc(SCC(=O)N4CCOCC4)sc3c2)cc1 | inconclusive: 11.2 µM [inhibitor, single point] | 
33 | CCOc1ccc(NC(=O)CN2C=C(C(=O)OC)C(C)=NS2(=O)=O)cc1 | inactive | 
34 | COc1ccccc1NC(=O)CSc1ncc2c(n1)-c1cc(Cl)ccc1N(Cc1ccccc1)S2(=O)=O | inconclusive: 10 µM [inhibitor, single point] | 
35 | CC1CCC2(CC1)OCC(C(=O)NCC1CCCO1)N2C(=O)c1ccc(Cl)c(Cl)c1 (configuration not stated) | inactive | 
36 | CCCN(CCC)S(=O)(=O)c1ccc(C(=O)Nc2sc3c(c2C(=O)OC)CCN(CC)C3)cc1 | inconclusive: 10 µM [inhibitor, single point] | 
37 | CC(C)c1nc2c(c(-c3ccc(Cl)cc3)n1)CCN(Cc1ccccc1)CC2 | inconclusive: 12.6 µM [inhibitor, single point] | 
38 | O=C1NCc2ccccc2CC12CCCCN2CC1=CCCCC1 (configuration not stated) | inconclusive: 7.94 µM [inhibitor, partial curve, poor fit] | 
39 | Cc1ccc(CCNC(=O)c2ccc3c(c2)N(Cc2cccc(Cl)c2)C(=O)c2ccccc2S3(=O)=O)cc1 | inconclusive: 11.2 µM [inhibitor, single point] | 
40 | Cn1c(CO[C@H]2CN(C(=O)C(C)(C)C)C[C@H]2F)nc2ccccc21 | inactive | 
41 | Cc1cc(C)cc(OC(C)C(=O)Nc2c(C(=O)c3ccccc3)oc3ccccc23)c1 (configuration not stated) | inconclusive: 11.2 µM [inhibitor, single point] | 
42 | CCOc1ccccc1NC(=O)N1CCC([C@@H]2[C@H](OC)C(=O)N2C(C)C)CC1 | inconclusive: 1.12 µM [inhibitor, full curve, poor fit] | 

Row | SMILES | Potency | outcome
43 | Cn1nc(C(=O)N2CCC3(CC2)N=C(c2ccccc2)NO3)c2ccccc21 | inconclusive: 17.8 µM [inhibitor, single point] | 
44 | O=C1NCc2ccccc2CC12CCCN2Cc1ccc(Br)cc1 (configuration not stated) | inconclusive: 10 µM [inhibitor, single point] | 
45 | O=C1[C@@H]2C[C@@H](CN2C(=O)c2ccc(F)cc2)Oc2ccccc2N1Cc1ccc(OC(F)(F)F)cc1 | inconclusive: 12.6 µM [inhibitor, partial curve, poor fit] | 
46 | O=C(NCc1ccc(F)cc1)C1(CCO)CC12CCOCC2 (configuration not stated) | inconclusive: 0.631 µM [inhibitor, full curve, poor fit] | 
47 | CCn1cc2nc(SCc3cccc(Cl)c3)n(Cc3ccc(C)cc3)c(=O)c2n1 | inactive | 
48 | COc1ccc(C(=O)N2CCCN(c3cc(-c4ccc(F)cc4)[nH]n3)CC2)c(C)c1 | inactive | 
49 | COc1ccc(-c2cc([C@H]3CN4CC[C@H]3C[C@@H]4CNC(=O)c3cccs3)nc(C)n2)cc1OC | inconclusive: 2.82 µM [inhibitor, partial curve, poor fit] | 
50 | CC(=O)Nc1ccc(S(=O)(=O)N[C@H]2CO[C@H]3[C@@H]2OC[C@H]3OC(=O)Nc2ccc(Oc3ccccc3)cc2)cc1 | active: 6.31 µM | 
51 | CCc1ccc(CN2CCc3nc(N4CCN(CC)CC4)ncc3C2)cc1 | inconclusive: 7.94 µM [inhibitor, single point] | 
52 | CCN(C(=O)CSc1nc(-c2ccc(C(C)C)cc2)no1)c1cccc(C)c1 | active: 0.891 µM | 
53 | CCc1ccc(C(=O)Nc2cccc(-c3nnc4n3CCCC4)c2)cc1 | inconclusive: 2 µM [inhibitor, partial curve, poor fit] | 
54 | COc1ccc(CCNC(=O)c2c(OC)cc(=O)n3c2CCCC3)cc1OC | inactive | 
55 | CN(C)C(=O)C1CN(C(=O)Nc2cccc(Cl)c2F)CC12CCOCC2 (configuration not stated) | inactive | 
56 | COc1ccc(C2Cn3cnc(C(=O)N4CCC(C(=O)Nc5ccc(C)c(F)c5)CC4)c3CO2)cc1 (configuration not stated) | inactive | 
57 | CCOC(=O)c1c(C)[nH]c(C)c1S(=O)(=O)N1CCN(c2cccc(C(F)(F)F)c2)CC1 | inconclusive: 0.0501 µM [inhibitor, full curve, poor fit] | 
58 | Cc1ccc(S(=O)(=O)N2CCC(C(=O)Nc3ccc(C)c(Cl)c3)CC2)cc1 | inconclusive: 10 µM [inhibitor, single point] | 
59 | CCc1ccc(C(=O)N2CCN(C(=O)c3nnn4c3COC(c3ccc(OC)cc3)C4)CC2)cc1 (configuration not stated) | inconclusive: 5.01 µM [inhibitor, partial curve, poor fit] | 
60 | O=C(CCCc1nc(-c2ccncc2)no1)N1CCCC2(CCNCC2)CC1 | inactive | 
61 | COc1cccc(C(=O)N2CCC(N3C[C@H](O)C[C@H]3C(=O)NC3CCCCC3)CC2)c1C | inconclusive: 17.8 µM [inhibitor, single point] | 
62 | Cc1cc(Cn2cc3c4c(cccc42)[C@H](CC(C)C)N[C@H](C(=O)NCC2CC2)C3)no1 | inconclusive: 3.55 µM [inhibitor, single point] | 
